Our source for the EC50 and Maximum mean fluorescence intensity values is patent EP4538294A1.

What is called EC50 is the concentration that produces a half-maximal response. Higher therefore signals a need for much substance.

This experiment has as its target BCMA and GPRC5D co-expressed on NCI-H929 cells. The experiment in a line: FACS, H929 cells.

A number of entries come with more than one value. This is not the full list of results. The source may hold further records. The records of an entry seem to repeat one measurement; one of them may be the mean.

As for JNJ7564 (bispecific antibody), the EC50 was 34.7, 30.2, 36.4, 20.6, 32.7 nM [one table] and the Maximum mean fluorescence intensity is 1480, 1050, 807, 1590, 1710 [one table].

As for REGN5459 (bispecific antibody), the EC50 was 55.1, 61.7, 50.5, 24, 44.7 nM [one table] and the Maximum mean fluorescence intensity was 13800, 19900, 7880, 21100, 9580 [one table].
